Measured values from the supplement of paper PMC7125110.
± gives the standard error. This sample is rich in variants without activity.

B1: glmS ribozyme (parent)
chain: AUAAAAGCGCCAGAACUACAGAAAUGUAGUUGACGAGGAGGAGGUUUAUCGAAUUUUCGGCGGAUGCCUCCAAA

Assays:
Details in all cases: with glucosamine-6-phosphate
glucosamine-6-phosphate [1] = variants of: B1; assay: self-cleavage kobs at 40 uM GlcN6P; higher = faster cleavage; RNA array
Summary of the method: (§1)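 Tracking of barcoded ribozyme variants used a hybridised Cy3 probe at 37 °C, after in situ transcription by E. coli RNA polymerase on sequenced MiSeq chips. The flowed solution held 40 μM to 10 mM glucosamine-6-phosphate in HEPES/KCl/Mg(OAc)2 buffer, and imaging ran over ~14 h. kobs was taken from exponential decay fits of normalised per-tile medians, and kcat and KM from weighted Michaelis–Menten fits.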

glucosamine-6-phosphate [2] = variants of: B1; assay: self-cleavage kobs at 2500 uM GlcN6P; higher = faster cleavage; RNA array
Summary of the method: as §1

glucosamine-6-phosphate [3] = variants of: B1; assay: self-cleavage kobs at 10000 uM GlcN6P; higher = faster cleavage; RNA array
Summary of the method: as §1

glucosamine-6-phosphate [4] = variants of: B1; assay: self-cleavage kobs at 160 uM GlcN6P; higher = faster cleavage; RNA array
Summary of the method: as §1

glucosamine-6-phosphate [5] = variants of: B1; assay: self-cleavage kobs at 640 uM GlcN6P; higher = faster cleavage; RNA array
Summary of the method: as §1

| Variant | self-cleavage kobs at 40 uM GlcN6P (glucosamine-6-phosphate [1]) [s⁻¹] | self-cleavage kobs at 2500 uM GlcN6P (glucosamine-6-phosphate [2]) [s⁻¹] | self-cleavage kobs at 10000 uM GlcN6P (glucosamine-6-phosphate [3]) [s⁻¹] | self-cleavage kobs at 160 uM GlcN6P (glucosamine-6-phosphate [4]) [s⁻¹] | self-cleavage kobs at 640 uM GlcN6P (glucosamine-6-phosphate [5]) [s⁻¹] |
| --- | --- | --- | --- | --- | --- |
| G38C G41U A53U | < 1e-05 | < 1e-05 | < 1e-05 | – | – |
| G38C G43C C50U G60C C67U | < 1e-05 | – | < 1e-05 | – | – |
| G38C G63U A64U | < 1e-05 | – | – | – | – |
| G38C G66A | < 1e-05 | – | < 1e-05 | < 1e-05 | – |
| G38U A39U C58G C71U | < 1e-05 | < 1e-05 | – | – | – |
| G38U A42U U49A G60U | < 1e-05 | – | < 1e-05 | – | – |
| G38U A52C A53G U54G | < 1e-05 | – | – | – | – |
| G38U A52C C61A | < 1e-05 | – | – | – | – |
| G38U A64G | < 1e-05 | < 1e-05 | – | – | – |
| G38U C58U | < 1e-05 | < 1e-05 | < 1e-05 | – | – |
| G38U C68G | 6.28e-05 ± 1e-05 | – | 0.000182 ± 4e-05 | 0.000349 ± 0.00017 | 0.000294 ± 4.2e-05 |
| G38U G40A A42C C61A U65C | < 1e-05 | – | < 1e-05 | – | – |
| G38U G41A G63U | < 1e-05 | – | – | – | – |
| G38U G43A | < 1e-05 | – | < 1e-05 | < 1e-05 | < 1e-05 |
| G38U G44A | < 1e-05 | < 1e-05 | < 1e-05 | < 1e-05 | < 1e-05 |
| G38U G44C | < 1e-05 | < 1e-05 | < 1e-05 | – | < 1e-05 |
| G38U G44U | < 1e-05 | – | < 1e-05 | < 1e-05 | < 1e-05 |
| G38U G59C | < 1e-05 | < 1e-05 | – | – | < 1e-05 |
| G38U G62U | < 1e-05 | – | < 1e-05 | < 1e-05 | < 1e-05 |
| G38U G62U G63A | < 1e-05 | < 1e-05 | – | – | – |
| G38U G66A U69G | 4.77e-05 ± 2e-05 | – | – | – | – |
| G38U U45A | < 1e-05 | < 1e-05 | < 1e-05 | – | – |
| G38U U45G C58A | < 1e-05 | – | < 1e-05 | < 1e-05 | – |
| G38U U46A | < 1e-05 | – | – | – | – |
| G38U U47G | < 1e-05 | – | – | – | – |

| Variant | self-cleavage kobs at 40 uM GlcN6P (glucosamine-6-phosphate [1]) [s⁻¹] | self-cleavage kobs at 2500 uM GlcN6P (glucosamine-6-phosphate [2]) [s⁻¹] | self-cleavage kobs at 10000 uM GlcN6P (glucosamine-6-phosphate [3]) [s⁻¹] | self-cleavage kobs at 160 uM GlcN6P (glucosamine-6-phosphate [4]) [s⁻¹] | self-cleavage kobs at 640 uM GlcN6P (glucosamine-6-phosphate [5]) [s⁻¹] |
| --- | --- | --- | --- | --- | --- |
| G38U U49C | < 1e-05 | < 1e-05 | – | < 1e-05 | < 1e-05 |
| G38U U54C | < 1e-05 | – | – | < 1e-05 | < 1e-05 |
| G38U U55C G59C | < 1e-05 | – | – | – | < 1e-05 |
| G38U U55G C67U | < 1e-05 | < 1e-05 | < 1e-05 | – | – |
| G38U U57G C67U C70U | 8e-05 ± 2.6e-05 | 0.0013 ± 0.00059 | 4.29e-05 ± 1.9e-05 | – | 0.000114 ± 4.7e-05 |
| A39C A42G | 0.000141 ± 1.4e-05 | 0.00282 ± 0.00046 | 0.0047 ± 0.00074 | 0.000376 ± 7.6e-05 | 0.00152 ± 0.00029 |
| A39C A48U A52G | < 1e-05 | – | < 1e-05 | – | – |
| A39C A48U G59U | < 1e-05 | – | < 1e-05 | – | – |
| A39C A48U U65G C71A | < 1e-05 | – | – | – | – |
| A39C A52C | < 1e-05 | < 1e-05 | – | – | – |
| A39C A64U | < 1e-05 | – | – | < 1e-05 | – |
| A39C C58U G63U | < 1e-05 | – | < 1e-05 | – | – |
| A39C C61A C71U | < 1e-05 | < 1e-05 | < 1e-05 | – | < 1e-05 |
| A39C C68A | < 1e-05 | < 1e-05 | < 1e-05 | < 1e-05 | < 1e-05 |
| A39C C70A | < 1e-05 | – | – | – | < 1e-05 |
| A39C G40C C61G | < 1e-05 | – | < 1e-05 | – | – |
| A39C G40C U47C | < 1e-05 | – | – | – | – |
| A39C G41C | < 1e-05 | < 1e-05 | < 1e-05 | < 1e-05 | < 1e-05 |
| A39C G60U C70A | < 1e-05 | – | – | – | – |
| A39C G63A | < 1e-05 | < 1e-05 | < 1e-05 | < 1e-05 | < 1e-05 |
| A39C G66C C68G | < 1e-05 | – | < 1e-05 | – | – |
| A39C U47G U57G G62C | < 1e-05 | – | – | – | – |
| A39C U55C C70G | < 1e-05 | – | < 1e-05 | < 1e-05 | – |
| A39C U56A | 5.87e-05 ± 1.3e-05 | – | – | 0.000129 ± 3.6e-05 | 0.000412 ± 5.2e-05 |
